# Data: the supplement of paper PMC3334620
# Whole data set: some 33,000 sequences, median “E-score (-0.5 to 0.5)” near -0.04, cut for the highest 2% near 0.36. Some of the results follow.
# Target: T1, Hmlalpha2 (UniProt P0CY09)
# T1 sequence: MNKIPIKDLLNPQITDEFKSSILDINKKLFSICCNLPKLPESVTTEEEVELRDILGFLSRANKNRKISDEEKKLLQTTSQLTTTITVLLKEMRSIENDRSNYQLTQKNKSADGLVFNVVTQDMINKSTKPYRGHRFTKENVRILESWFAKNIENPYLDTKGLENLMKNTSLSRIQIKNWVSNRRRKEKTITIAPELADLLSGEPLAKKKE
# Experiment: PBM E-score (8-mer binding enrichment) (E-score (-0.5 to 0.5)); higher = stronger / more preferred TF binding; most listed sequences are background and not binding sites
# Conditions: protein concentration: 200 nM; construct: GST-full length
# Summary of the method: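 E-scores (a modified Wilcoxon-Mann-Whitney statistic) were assigned by the Universal PBM Analysis Suite to every ungapped eight-base word pooled with its reverse complement. The input came from universal all-10-mer Agilent arrays made double-stranded by primer extension and probed with GST-tagged yeast transcription factors at about 100-200 nM. Fluorescent anti-GST detected bound protein, and masliner normalised the scans.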
row,Sequence,PBM E-score
1,CCACATAG,-0.105
2,TCACTACA,0.275
3,CCCCCTAA,-0.263
4,GAGTTCAC,0.104
5,AAAAAGCA,0.0395
6,TACCAATA,-0.172
7,AAAGGATG,0.0139
8,ACCGTGCT,-0.0693
9,GGACCGCC,-0.235
10,CTCCTGAC,-0.208
11,TCGGATCA,0.0619
12,CGCTCGAC,-0.206
13,AGTATTGG,-0.114
14,CAGGTATG,0.0854
15,CTTAGCGC,0.00158
16,CAGTAAGG,-0.0753
17,AAACGAAT,-0.00184
18,AGAACGAC,-0.0288
19,AGCGTCTG,-0.139
20,ACCCTTAG,-0.182
21,ATCGTTCC,-0.186
22,TATTCAGA,0.0759
23,AAACGTAA,0.263
24,ATATCACA,0.0488
25,CAAGGGAC,-0.162

row,Sequence,PBM E-score
1,CACGGGTA,0.195
2,AGATGGTA,-0.083
3,CTGCTAAA,0.0291
4,AGTTACAT,0.328
5,GCGGGACA,-0.186
6,CGTGGCGC,-0.0659
7,CCTCCGAG,-0.17
8,TGCAAGAA,0.0679
9,GGATCGGA,-0.0748
10,GAATGGAA,-0.00121
11,AAGGGTAA,0.0848
12,GATGGTCA,-0.156
13,ACACGAGG,0.292
14,CCGAACGC,-0.0948
15,CCAGAGGA,-0.239
16,AAATCAGG,0.0012
17,CGAAATCG,-0.15
18,CTTAGATC,0.0435
19,CTGAACAA,0.173
20,CATGGACG,0.182
21,CGCGCCGC,-0.073
22,CGCTCCCG,-0.155
23,CTGTGCCA,-0.199
24,ACCAACCC,-0.0009
25,ACAGCTGA,-0.118

row,Sequence,PBM E-score
1,ACGTCGGA,-0.0511
2,AGAATTAT,-0.0484
3,AACGCGTG,0.336
4,CTTAAAAA,0.0134
5,CTTCCTCC,-0.189
6,AGGTTCAG,-0.00896
7,AAGTCACC,-0.166
8,CTAAGCTA,-0.00389
9,ACTGCTCC,-0.213
10,AGTCGGGC,-0.164
11,GGAGCTGA,-0.183
12,AAGCAGTG,0.0709
13,GGCCACAA,-0.171
14,CGAAGCCC,-0.277
15,GAAACGGA,-0.0438
16,CGCAGGCC,0.00482
17,CGCAGCGA,0.00923
18,CGCGCGTC,0.0779
19,ATTGTCGC,-0.00639
20,ATATGAGG,-0.303
21,ACGAAAAA,0.0311
22,CCTCTATA,-0.127
23,CCCCGCAG,-0.288
24,CCGGCACG,-0.217
25,GGGTCCCA,-0.209

row,Sequence,PBM E-score
1,CTCGAGGC,-0.131
2,AAAGCTAG,-0.129
3,CGGCTAAG,-0.215
4,ACTGTATG,0.00437
5,CGGCCAGA,-0.359
6,ACGGCTAG,-0.122
7,AACCCATT,-0.0724
8,CCTGATGC,-0.144
9,GGTGACTA,-0.09
10,AAGAGTCG,0.0691
11,AGGTGACG,-0.11
12,ATTGAACA,0.232
13,ATACCCAG,-0.12
14,CCCGAGAA,-0.0896
15,GGGATCCA,-0.225
16,CACGTCAC,0.0306
17,CGTGTAGA,0.482
18,TGCGAGCA,-0.176
19,CAATATAA,0.0938
20,ATATAACG,0.216
21,CGTACGGC,-0.0963
22,GCACCTGA,-0.0306
23,GCAAGGAC,-0.181
24,AAGACAAC,0.241
25,GCGGAAAA,-0.0324

row,Sequence,PBM E-score
1,ACCATGAC,-0.0635
2,AAGTCTAG,-0.224
3,ACACAGTA,0.36
4,ATTTGACC,-0.0936
5,ACCCTGAT,-0.3
6,AACGATGG,-0.18
7,ACAGAACT,0.0437
8,AATCTAAA,0.0624
9,CTGATATC,0.0543
10,AGATGAGA,-0.162
11,ATCACCAC,-0.042
12,ATAAGGGC,-0.153
13,AGGCAAAC,-0.16
14,ACTTAGCG,0.0588
15,CAGTAGTC,-0.173
16,ACTTTGAA,0.0483
17,GTCGAACA,0.199
18,CACCGCTC,-0.191
19,ATGATATG,0.122
20,GTGCACGA,-0.0711
21,CAGAGAGG,-0.35
22,GGAGTGAC,0.0734
23,CCTTCTCG,-0.0763
24,CCAGGGAG,-0.326
25,ATTGACTA,-0.053

row,Sequence,PBM E-score
1,CTCTTGGA,-0.0492
2,GAAATCTC,-0.0991
3,GGCCGTCA,-0.274
4,AGAAGGGG,-0.217
5,CATCCTTA,0.0577
6,CCGCCTCA,-0.184
7,CCTGCGCG,-0.0382
8,ACATTCAC,0.209
9,CGAAGATA,-0.04
10,ACGTTAAC,0.281
11,ATTTGATG,0.0937
12,CCACCATA,-0.258
13,ACGCTCTG,-0.012
14,GTCTCCCA,-0.199
15,AAACACTC,0.109
16,AGGATCTC,-0.346
17,CAACCGAC,0.0641
18,CTGCACAA,0.00284
19,AGCACACA,-0.0355
20,CTTCGTGA,-0.037
21,ATGGGTGC,-0.0757
22,AGGAGTCC,-0.211
23,ATCATCCG,-0.1
24,ACCCGGCT,-0.0901
25,GACGGCCC,-0.386

row,Sequence,PBM E-score
1,TCGGCACA,-0.187
2,CCGAGTTA,0.0889
3,TCTGCACA,0.0476
4,GACTGTTA,0.0403
5,CTGTTCCA,-0.122
6,AAGCAGGC,-0.11
7,CTGTGGGA,-0.335
8,CTAATTTC,-0.0446
9,TAGAGAAA,-0.00565
10,GCGATAGC,-0.0391
11,CAAATACA,0.364
12,GCTTCATA,-0.0615
13,CACACGGG,0.218
14,AAGCAAAA,0.126
15,CCGCCCCC,-0.432
16,AATACAAG,0.386
17,CAGCTCCA,-0.168
18,CTCGAAAC,-0.0493
19,CAGCGGGC,-0.23
20,CAAACAGG,0.0864
21,AAAAACTT,0.169
22,AATCATGA,0.0793
